About 450 (0.94%) of roughly 48,000 compounds were called active. Roughly 19% stayed inconclusive and do not appear here. Calls come from the whole dose curve; as a rule, active = well fitted inhibition curve with a large enough effect; inconclusive = small, poorly fitted or top-dose-only effect; inactive = no such curve, though single readings can be large or run the other way. Some of the results follow.
Potency is the fitted concentration of half-maximal effect.

The assay is described as follows: Primary qHTS for Identification of Small Molecule Inhibitors of Huntingtin Promoter Activity. Note: nearly all actives have a fitted effect of over 50% in size. To be noted: HEK293 HTT promoter firefly luciferase reporter (activity 0% = vehicle and -100% = no light), 24 h; series mostly up to 57.5 µM; activity change, negative = inhibition: at the top concentration. The procedure, abridged: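 Firefly luciferase signal from promoter-reporter HEK293 cells was scaled between vehicle (0%) and zero RLU (-100%). Compounds were tested at final concentrations of up to 57.5 uM over 24 h at 37 degrees C. PTC124 at 50 uM final served as control inhibitor.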
(Quantitative high-throughput screening tests each substance at several concentrations.)
As for `CCOC(=O)c1[nH]c2ccccc2c1NC(=O)c1ccc(Br)cc1`, the “activity change, negative = inhibition” value was inactive: -6.19%.

As to `COc1cccc(CNC(=O)C2CCN(S(=O)(=O)c3ccc4c(c3)CCCN4C(C)=O)CC2)c1`, the “activity change, negative = inhibition” value was inactive: -8.53%.

For the compound `CCCCOc1cc(C(=O)NCCN(CC)CC)c2ccccc2n1`, the “activity change, negative = inhibition” value is inactive: -7.47%.

Regarding `CCOc1ccc(-c2nc3c(c(SCC(=O)N4CCCCC4)n2)Cc2cccc(OC)c2O3)cc1`, the “activity change, negative = inhibition” value was inactive: -10.6%.

Consider `CCCn1c2ccccc2c2cnn(CC(=O)N3CCN(c4ccccc4)CC3)c(=O)c21`, for which the “activity change, negative = inhibition” value is inactive: -10.1%.

Consider `Cc1cccc(CSc2ncc(Cl)c(C(=O)Nc3nc4ccc(F)cc4s3)n2)c1`, for which the “activity change, negative = inhibition” value is inactive: 3.34%.

As to `Cc1ccc2nc3c(cc(C#N)c(=O)n3-c3nnc(SCc4ccccc4)s3)c(=O)n2c1`, the “activity change, negative = inhibition” value was inactive: 12.4%.

For `CCOc1ccc(NC(=O)c2ncoc2-c2ccco2)cc1`, the “activity change, negative = inhibition” value is inactive: 52.5%.

Take `O=C(Cn1c(=O)nc(-c2ccccc2)c2cc(Cl)ccc21)Nc1ccc(F)c(Cl)c1`: the “activity change, negative = inhibition” value is inactive: -15.1%.

`COc1cccc(CNC(=O)c2ccc(-n3c(C)cc4c3CCC(C)C4)cc2)c1` (configuration not stated): the “activity change, negative = inhibition” value is inactive: 12.5%.

As for `CCOc1cc(C#N)c(NC(=O)Cn2nnc(-c3ccc(C)cc3)n2)cc1OCC`, the “activity change, negative = inhibition” value was inactive: -21%.

As to `COc1ccccc1OC(C)C(=O)Nc1cccc(-c2nc3ccccc3o2)c1` (configuration not stated), the “activity change, negative = inhibition” value is inactive: 2.95%.

Turning to `CCCSc1nc2c([nH]c3ccccc32)c(=O)n1C`, the “activity change, negative = inhibition” value is inactive: -2.32%.

Take `O=C(NCc1cccnc1)c1nn(-c2ccc(F)cc2)nc1CO`: the “activity change, negative = inhibition” value is inactive: -19%.

With `CCc1ccc(NS(=O)(=O)c2ccc3[nH]cc(C(=O)NCCCOC(C)C)c(=O)c3c2)cc1`, the “activity change, negative = inhibition” value was inactive: -15.5%.

On to `Cc1ccc(Cl)cc1N1CCN(S(=O)(=O)c2ccc3c(c2)CCN3C(=O)C2CCC2)CC1`, for which the “activity change, negative = inhibition” value was inactive: -7.14%.

With `Cc1coc2c1C(=O)C(=O)c1c-2ccc2c(C)cccc12`, the “activity change, negative = inhibition” value was inactive: -6.22%.

With `COc1ccc(NC(=O)c2oc3ccccc3c2NC(=O)COc2ccc(C(C)C)cc2)c(OC)c1`, the “activity change, negative = inhibition” value was inactive: -11%.

On to `O=C(Nc1ccccc1Cl)c1sc2cccc(Cl)c2c1Cl`, for which the “activity change, negative = inhibition” value was inactive: 16.1%.

For `Cc1ccc(N(CC(=O)Nc2ccc(Cl)cc2)S(=O)(=O)c2cccc3nonc23)cc1`, the “activity change, negative = inhibition” value was inactive: -14%.

Regarding `COc1cccc(NC(=O)Cn2c(=O)n(Cc3ccccc3)c(=O)c3ccccc32)c1`, the “activity change, negative = inhibition” value is inactive: -19.3%.

For `CCSc1nc2n(n1)C(c1ccc(C(=O)O)cc1)C(C(=O)Nc1ccccc1C)=C(C)N2` (configuration not stated), the “activity change, negative = inhibition” value is inactive: 5.37%.

As for `COc1ccc(-c2nc3c(c(SCC(=O)N4CCCCC4)n2)Cc2cc(Cl)ccc2O3)cc1`, the “activity change, negative = inhibition” value is inactive: -9.44%.

In the case of `CCCS(=O)(=O)c1nc(S(=O)(=O)c2ccc(C)cc2)c(NC)s1`, the “activity change, negative = inhibition” value is inactive: -16.9%.

On to `Cc1ccc(-n2ncc(C(=O)N3CCCCC3)c2C2CCN(C(=O)OC(C)(C)C)CC2)c(C)c1`, for which the “activity change, negative = inhibition” value was inactive: -19.1%.

In the case of `CCOC(=O)c1c(NC(=O)c2ccc(OC)cc2)sc2c1CCCCC2`, the activity change, negative = inhibition was inactive: -6.86% [at 11.5 µM].

As to `O=C(COc1ccccc1)Nc1ccc2nc(SCC(=O)N3CCOCC3)sc2c1`, the “activity change, negative = inhibition” value is inactive: -19.2%.

With `O=C(O)c1ccccc1-c1ccc(C(F)(F)F)cc1`, the “activity change, negative = inhibition” value was inactive: 9.19%.

Take `Cc1ccc(CSc2nnc3[nH]c(=O)cc(-c4ccccc4)n23)cc1`: the “activity change, negative = inhibition” value was inactive: -6.1%.

For `O=C(CSc1nnc(-c2ccc(F)cc2)o1)N1CCCc2ccccc21`, the “activity change, negative = inhibition” value is inactive: -20.8%.

For the compound `O=C(CCC1N=C2c3ccccc3N=C(SCc3ccc(Cl)cc3)N2C1=O)N1CCN(c2ccccc2)CC1` (configuration not stated), the “activity change, negative = inhibition” value was inactive: 3.19%.

In the case of `COc1ccc(N2CCN(CCCNC(=O)Nc3ccccc3)CC2)cc1`, the “activity change, negative = inhibition” value is inactive: -1.7%.

Consider `COC(=O)c1sccc1S(=O)(=O)N(CC(=O)NCc1ccc(C)cc1)c1ccc(C)cc1`, for which the “activity change, negative = inhibition” value was inactive: -18.7%.

As to `COc1ccc(NC(=O)CCCn2nc(C)c3sc4ccccc4c3c2=O)cc1`, the “activity change, negative = inhibition” value is inactive: 3.92%.

As for `COc1ccc(S(=O)(=O)NCCSc2nnnn2-c2ccccc2)cc1`, the “activity change, negative = inhibition” value was inactive: -12.5%.

In the case of `COc1ccc(-c2nc(CSCC(=O)N3CCN(c4ccc(F)cc4)CC3)c(C)o2)cc1`, the Potency is active: 12.6 µM.

Consider `CCN(Cc1ccccc1)S(=O)(=O)c1ccc(-c2coc(C)n2)cc1`, for which the “activity change, negative = inhibition” value is inactive: -24.6%.

For the compound `Cc1cc(-n2c(C)nc3ccccc3c2=O)ccc1NC(=O)C(F)(F)F`, the “activity change, negative = inhibition” value was inactive: -0.0316%.

In the case of `Fc1ccc(C2=CC(c3ccc(F)cc3)n3c(nc4ccccc43)N2)cc1` (configuration not stated), the “activity change, negative = inhibition” value was inactive: 46.2%.

`O=C(Cn1ncc2c3ccccc3n(Cc3ccc(F)cc3)c2c1=O)NCc1cccs1`: the “activity change, negative = inhibition” value was inactive: -8.04%.

In the case of `CC(CNC(=O)c1ccc2nc(Cc3ccccc3)oc2c1)c1ccccc1` (configuration not stated), the “activity change, negative = inhibition” value is inactive: -30.6%.

With `CC1CCCN(S(=O)(=O)c2ccc3c(c2)CCN3C(=O)CCC(=O)O)C1` (configuration not stated), the “activity change, negative = inhibition” value is inactive: -1.71%.

Turning to `CCC(C)Nc1ncnc2c1cnn2-c1ccc(F)cc1` (configuration not stated), the “activity change, negative = inhibition” value was inactive: 38.9%.

With `Cc1cc(C(=O)Nc2ccc(-n3c(C)nc4ccccc4c3=O)cc2)ccc1[N+](=O)[O-]`, the “activity change, negative = inhibition” value is inactive: -30%.

With `Cc1ccc2c(=O)cc(C(=O)Nc3ccc(S(=O)(=O)Nc4onc(C)c4C)cc3)oc2c1C`, the “activity change, negative = inhibition” value was inactive: -3.35%.

`O=C(CSc1oc(-c2ccccc2)nc1S(=O)(=O)c1ccc(Cl)cc1)c1ccccc1`: the “activity change, negative = inhibition” value is inactive: -23.6%.

With `Cc1ccc(-n2cc(C(=O)Oc3ccc(F)cc3)c3ccccc3c2=O)cc1`, the “activity change, negative = inhibition” value is inactive: -15%.
